From PubChem BioAssay AID485281 (National Center for Advancing Translational Sciences (NCATS), 2010)
In all, about 350,000 compounds went through this assay and about 260 (0.074%) were called active. Inconclusive means that the source gave no clear call. Such entries were picked first, then a sample of the others. Calls follow the shape of the dose curve; as a rule, active = well fitted inhibition curve with a large enough effect; inconclusive = small, poorly fitted or top-dose-only effect; inactive = no such curve, though single readings can be large or run the other way. Potencies beside an inconclusive call are fits to weak or partial responses and may not hold up.

What follows are molecules tested against Ferritin light chain (Equus caballus) (UniProt P02791) (assay: qHTS Assay for Identification of Novel General Anesthetics). Details: apoferritin/1-aminoanthracene competitive binding, fluorescence; activity change, negative = displacement: at 77.5 µM (top of the series).
Method in brief: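 Horse-spleen apoferritin (10 uM) in 50% saturated 1-aminoanthracene in PBS was incubated 10 min at room temperature with compound. Fluorescence (ex 380, em 535 nm) was normalized to free and bound 1-AMA, with concentration-response fitted by a four-parameter Hill equation.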
% is scaled to controls: 0 for no effect and ±100 for the full control effect; potency is read from the fitted curve at half-maximal effect; tags tell the direction and shape of the fitted curve.
Also: nearly all actives have a fitted effect of over 20% in size.

Chain of UniProt P02791 (P02791 whole entry, looked up): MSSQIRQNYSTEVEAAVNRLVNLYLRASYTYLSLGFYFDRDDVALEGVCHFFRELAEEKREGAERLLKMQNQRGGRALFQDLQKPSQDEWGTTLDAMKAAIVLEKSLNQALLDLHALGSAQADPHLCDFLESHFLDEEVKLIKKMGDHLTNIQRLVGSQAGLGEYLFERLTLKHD

Potency, inconclusive:
CC(=O)c1c(C)[nH]c(C(=O)OCC(=O)Nc2cc(S(=O)(=O)N3CCCC3)ccc2Cl)c1C 25.1 µM [inhibitor, partial curve]
Cc1ccc(Cc2c(C)nc3nc(SCC(=O)NC(C)c4ccccc4)nn3c2C)cc1 (stereo not given) 25.1 µM [inhibitor, partial curve]
Cc1ccc(CNc2ccc(N3CCOCC3)c(Cl)c2)cc1 10 µM [inhibitor, partial curve]
CCOC(=O)/C(C#N)=C\c1cn(C)c2ccccc12 39.8 µM [inhibitor, partial curve]
COC(=O)/C(=C/Nc1ccc(O)cc1)[N+](=O)[O-] 28.2 µM [inhibitor, single point]
O=C(NCc1ccc(Cl)cc1Cl)c1ccc2nc[nH]c2c1 25.1 µM [inhibitor, partial curve]
Nn1cnc2scc(-c3cccs3)c2c1=O 25.1 µM [inhibitor, partial curve]
CCOC(=O)c1nn(-c2ccc(C)c(C)c2)c(=O)c2c(N)scc12 31.6 µM [inhibitor, partial curve]
Oc1ccc(Oc2ncc(Cl)cc2Cl)cc1 6.31 µM [inhibitor, full curve]
CN(Cc1cccc(-n2cccn2)c1)C(=O)CCc1nnc(C2CCCCC2)o1 22.4 µM [inhibitor, partial curve]
O=C(COC(=O)CCc1c[nH]c2ccccc12)Nc1cc([N+](=O)[O-])ccc1Cl 50.1 µM [inhibitor, single point]
COc1ccc(NC(=O)c2cc(CC(C)C)nc3ccccc23)cc1 28.2 µM [inhibitor, single point]
CCC(C(=O)Nc1cccc(Cl)c1C)n1nc(-c2ccc(C)cc2)ccc1=O (stereo not given) 31.6 µM [inhibitor, partial curve]
Cc1ccc(NC(=O)C2COc3ccccc3O2)cc1 (stereo not given) 15.8 µM [inhibitor, partial curve]
N#Cc1cc(C(=O)c2cc(Br)ccc2O)cn(C2CC2)c1=O 12.6 µM [inhibitor, partial curve]
CCc1ccc(NC(=O)Nc2ccc3c(c2)N(C)C(=O)CS3)cc1 44.7 µM [inhibitor, partial curve]
Nc1n[nH]c(=S)n1/N=C1/C(=O)Nc2ccccc21 25.1 µM [inhibitor, partial curve]
O=C(Nc1cccc(Cl)c1)N1CCSc2ccccc21 14.1 µM [inhibitor, partial curve]
CC(C)CN1CCNC(=O)C1CC(=O)NCCc1ccc(C(F)(F)F)cc1 (stereo not given) 35.5 µM [inhibitor, partial curve]
CCCS(=O)(=O)c1c(S(=O)(=O)CCC)c2cc(CC)ccn2c1C(=O)c1ccc(OC)cc1 15.8 µM [inhibitor, partial curve]
CCCCCCNC(=O)Cc1nc2nc(C)cc(C)n2n1 10 µM [inhibitor, partial curve]
CC(C)COc1ccc(N)cc1OCC(C)C 15.8 µM [inhibitor, partial curve]
COc1ccc(C(=O)/C=C(\C)NCc2ccc3c(c2)OCO3)cc1 17.8 µM [inhibitor, partial curve]
CCOC(=O)c1nnc(-c2cccs2)nc1NC(C)C 22.4 µM [inhibitor, partial curve]
Cc1nc(N[C@@H](Cc2c[nH]c3ccccc23)C(=O)O)c2oc3ccccc3c2n1 39.8 µM [inhibitor, single point]
CCNC(=S)SCCOc1ccccc1C 44.7 µM [inhibitor, single point]
C=CCNS(=O)(=O)c1ccc(C(=O)OCc2cc(=O)oc3cc(OC)ccc23)cc1 50.1 µM [inhibitor, single point]
CCCN1C(=O)/C(=C/c2ccc(OCC(=O)OCC)cc2)NC1=S 10 µM [inhibitor, partial curve]
O=C(CCn1c(=O)[nH]c2ccsc2c1=O)N(CCc1ccccc1)Cc1ccccc1 11.2 µM [inhibitor, partial curve]
COc1cc2c(cc1OC)C1O[C@](c3ccsc3)(C2)OC2=C1C(=O)CC(C)(C)C2 5.01 µM [inhibitor, partial curve]

Activity change, negative = displacement, inactive:
COc1ccc(NC(=O)c2csc3c2CCCCC3)cc1 6.09%
COc1ccc(C(=O)NCC(c2cccnc2)N2CCc3ccccc3C2)cc1OC (stereo not given) -20.7%
CCCN1C(C(=O)c2ccccc2)=C(OC(=O)COc2ccccc2)c2ccccc2S1(=O)=O -5.41%
Cn1c(=O)n(-c2ccc(Br)cc2F)c(=O)c2sc3ccccc3c21 -2.04%
CCOC(=O)c1[nH]c2ccc(F)cc2c1NC(=O)c1cc(OC)c(OC)c(OC)c1 2.45%
c1ccc(-c2ccccc2OCCCN2CCCCCC2)cc1 -14.2%
COc1ccc(OC)c(NC(=O)CN(C)S(=O)(=O)c2ccc(C(=O)N3CCOCC3)s2)c1 42.4%
Cc1cc(C)cc(NC(=O)CN2CCN(c3ccccn3)CC2)c1 -0.895%
O=C(NCc1cccc(Cl)c1)c1cc2ccc3cccnc3c2[nH]1 0.236%
NC(N)=NCCC[C@H](NC(=O)[C@@H](N)Cc1ccc(O)cc1)C(=O)O 4.17%
O=C(O)c1cccnc1C(=O)N1CCc2c([nH]c3ccccc23)C1C(F)(F)F (stereo not given) 7.41%
O=C(N/N=C\c1c(O)ccc2ccccc12)c1ccc(Cn2cccn2)o1 315%
Cn1c2ccccc2c2ncn(CCCN3CCOCC3)c(=O)c21 -2.07%
CC(C)CS(=O)(=O)c1oc(-c2ccc(F)cc2)nc1S(=O)(=O)c1ccccc1 -21.7%
CCS(=O)(=O)c1ccc2oc(=O)c(/C=C(\O)c3ccc(Cl)cc3)nc2c1 -11%
